Laboratory results from the supplement of paper PMC3334620.
Whole data set: some 33,000 sequences, median “E-score (-0.5 to 0.5)” near -0.016, cut for the highest 2% near 0.32. The list shows a part of the results.

target: T1, Stp1 (UniProt B3LFK1); experiment: PBM E-score (8-mer binding enrichment) (E-score (-0.5 to 0.5)); higher = stronger / more preferred TF binding; most listed sequences are background and not binding sites; settings: protein concentration: 200 nM; construct: GST-full length
T1 sequence: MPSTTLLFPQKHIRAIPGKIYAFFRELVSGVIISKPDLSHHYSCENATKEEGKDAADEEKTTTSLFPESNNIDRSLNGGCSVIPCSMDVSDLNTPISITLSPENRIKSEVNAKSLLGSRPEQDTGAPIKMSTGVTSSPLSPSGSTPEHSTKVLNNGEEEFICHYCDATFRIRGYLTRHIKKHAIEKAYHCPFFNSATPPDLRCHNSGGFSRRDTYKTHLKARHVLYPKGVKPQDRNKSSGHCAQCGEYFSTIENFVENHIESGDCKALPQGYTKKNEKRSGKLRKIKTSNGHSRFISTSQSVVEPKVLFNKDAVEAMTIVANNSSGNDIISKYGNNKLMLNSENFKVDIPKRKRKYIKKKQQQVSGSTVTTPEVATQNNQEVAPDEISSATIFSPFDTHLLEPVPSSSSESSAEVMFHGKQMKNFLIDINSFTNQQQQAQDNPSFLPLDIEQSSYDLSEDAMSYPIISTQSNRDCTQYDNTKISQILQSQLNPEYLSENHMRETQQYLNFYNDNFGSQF
How it was run: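 Each ungapped eight-base word and its reverse complement, pooled, received an E-score from the Universal PBM Analysis Suite. Underlying scans, normalised with masliner, recorded fluorescent anti-GST bound to GST-tagged yeast transcription factors. These were applied at about 100-200 nM to universal all-10-mer Agilent arrays double-stranded by primer extension.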

Row | Sequence | PBM E-score
1 | ACTGTGCC | 0.262
2 | AAGATCCG | -0.1
3 | GGTTTAGA | -0.156
4 | ATCCATGC | 0.0293
5 | CCAACGTA | -0.0611
6 | CCCTGAGA | -0.311
7 | CGAGGCCC | -0.0701
8 | GGACAACC | -0.11
9 | ACGTGTAT | 0.014
10 | AACACTAG | -0.0344
11 | ATACGGCA | 0.483
12 | ACATCTGA | -0.0759
13 | ATATCAAT | 0.178
14 | CGAAGTAA | 0.0461
15 | ATGGCCCC | -0.214
16 | GCGATACA | 0.0444
17 | AATTGCAT | 0.0958
18 | ATCCTCTG | -0.194
19 | CTAGATAA | 0.0636
20 | CCGCGCTA | 0.289
21 | GTTCCATA | -0.164
22 | ACAAATGT | 0.0876
23 | GAGGAAGA | -0.12
24 | CAGCAAGG | 0.0199
25 | AGGGATGA | -0.12

Row | Sequence | PBM E-score
26 | CAGAATTA | -0.117
27 | CAGTGGCA | 0.178
28 | ATGAGTTA | -0.0188
29 | AGTAGGAT | -0.0597
30 | AAATTTCC | -0.0272
31 | TTCCAAAA | 0.113
32 | CGCGGGTA | 0.0364
33 | AACGACTG | -0.143
34 | ATACTAGA | 0.136
35 | CACCTACG | -0.152
36 | AGCTGCAT | 0.00937
37 | CTTAGGGC | -0.0209
38 | CAGTACGA | 0.0821
39 | CTAGATTA | 0.122
40 | ACCGAAAC | -0.0536
41 | TCCAACGA | -0.00725
42 | ATGGTAGG | -0.116
43 | ATTGTGCC | 0.322
44 | CAAAGTCG | -0.0558
45 | AGTGGTAG | -0.131
46 | GCGCGAAC | 0.172
47 | CGTTTTAC | 0.15
48 | ACCCTTTG | -0.109
49 | AGTAGGGC | 0.0649
50 | CCACCAGG | -0.198

Row | Sequence | PBM E-score
51 | TAGTTCGA | 0.125
52 | AACGGGAT | 0.00558
53 | CTACGCCC | -0.102
54 | CTATAAAC | 0.142
55 | CGTGTTAC | 0.0646
56 | AGGGCATA | 0.128
57 | TACAGGCA | 0.102
58 | GTGTACAC | -0.0403
59 | GTATAATA | 0.286
60 | ATTGATTA | 0.338
61 | ATTAAATC | 0.128
62 | ACGTCGCC | -0.0772
63 | GTCCTAAA | 0.204
64 | ACCGGGGG | -0.392
65 | GTGAGTAA | 0.15
66 | AGTCATGA | -0.099
67 | CTCCGTAC | 0.184
68 | CGATAAAG | 0.0783
69 | ACACGCTA | -0.118
70 | GCGACTTA | -0.0993
71 | AAGTGCAC | -0.034
72 | CCTGTCTC | -0.247
73 | AATAATAC | 0.0846
74 | AGCCAGAG | -0.302
75 | GACGTAGA | -0.253

Row | Sequence | PBM E-score
76 | CAATGTAG | -0.324
77 | AGGTCACC | -0.222
78 | ACCCAGCT | -0.283
79 | AGATCATG | -0.00529
80 | ACGCCGGG | -0.0857
81 | GACATCCA | -0.209
82 | GAGTTGGA | -0.157
83 | GAGGCAGC | 0.0343
84 | GCCAATCA | -0.224
85 | CGGTGGTA | -0.081
86 | GTAGGTCA | -0.249
87 | ACACTCGC | 0.00829
88 | AGGACTGA | -0.149
89 | AGTCATTA | -0.172
90 | CGCTAAGC | 0.186
91 | ACAGAGAC | -0.0839
92 | CCCGAGAC | -0.212
93 | AAACCACG | -0.089
94 | GGTTACAC | -0.101
95 | GAAATTGC | -0.0367
96 | ACCTGCAC | -0.155
97 | GGGGGAAC | -0.321
98 | CATATCGC | 0.199
99 | ATCAGATG | 0.0874
100 | GAACCCAA | -0.0962

Row | Sequence | PBM E-score
101 | CCTCCCTC | -0.168
102 | GCAACTCC | 0.0368
103 | ATTTGACG | 0.13
104 | GTATGGGA | -0.155
105 | CGTGATAC | -0.05
106 | AATGCGGC | 0.435
107 | GGATCTCA | -0.137
108 | AAGTCGTG | -0.119
109 | AGCAGACC | -0.0565
110 | CCTCTGTA | -0.0499
111 | GACTAACA | -0.00472
112 | ACCGGTCC | -0.369
113 | ACAAAACG | 0.255
114 | AATAGTGT | 0.104
115 | CGGTCACA | -0.236
116 | GAGGTAGC | -0.299
117 | CACGGCCA | 0.34
118 | CCTATGCC | 0.0677
119 | TGCGGTAA | 0.285
120 | CCAGCAAG | -0.221
121 | GGAGGGGA | -0.22
122 | GCCAACAA | -0.18
123 | CAAGATCC | -0.0198
124 | GAGAACTA | 0.0272
125 | CACCCAAG | -0.185

Row | Sequence | PBM E-score
126 | TCATAGCA | -0.0832
127 | CTTGAATC | 0.0123
128 | CTGGAGGA | -0.101
129 | CGGGGCAG | -0.0721
130 | CCGACGAG | -0.0825
131 | CAGCATCC | -0.252
132 | CCGAGGGC | 0.00695
133 | GATCCTGA | 0.0651
134 | AACCTAGG | -0.124
135 | AAACGACG | 0.153
136 | GCCGGGAA | -0.208
137 | AGCCTTAC | -0.022
138 | CGTGCTGA | 0.0468
139 | TACCCCCA | -0.28
140 | GGTTAAAA | -0.0872
141 | ACACGTAA | 0.00247
142 | CTACTACC | 0.00874
143 | TGCCTTAA | 0.0763
144 | ATATAGGG | -0.0382
145 | GTCGCCCA | -0.0829
146 | CACACTGA | -0.0264
147 | CTCACGCC | 0.154
148 | GTACAGAA | 0.109
149 | GTGATGTA | 0.0415
150 | GGGAGACC | -0.355

Row | Sequence | PBM E-score
151 | AACCCGCC | -0.00739
152 | AAGACAAG | 0.168
153 | GAAAGGGC | 0.165
154 | AATCGATC | 0.0152
155 | GCAAGTAC | -0.0666
156 | CTGAGTCC | -0.216
157 | AGCATGAC | -0.11
158 | AGATGTGG | -0.1
159 | CTTGTCAC | -0.0747
160 | CGTGGGTA | -0.109
161 | CCGAGCGC | 0.17
162 | TAGTCTAA | -0.222
163 | AATTGTTC | 0.227
164 | CCTAAACA | -0.0254
165 | ATATCCAA | 0.05
166 | CGCTAACG | 0.274
167 | GCAAGGCC | 0.151
168 | TTCTCCAA | -0.0322
169 | ATAGTCGG | -0.212
170 | GGCGCGGA | 0.337
171 | AGTGTGAC | -0.121
172 | ACGTCCCC | -0.352
